# Reference: the RNAGym collection of RNA variant scans (doi:10.7554/elife.90254)
# The source gives no read counts; variants with many changes may rest on few reads.
# B1: LINE1-mini (parent)
# chain: GGCAGAGCUCAACACAGCGUGGCAAAGUGGCUGUGGCUAGACUGCC
# Variants of: B1
# Test: self-cleavage, relative activity (ratio to wild type); higher = more cleavage; in vitro, sequencing; the parent is a self-cleaving ribozyme
row,Variant,self-cleavage
1,A14G U20C U32G G44U,0.02
2,A14G U28C U38C,0.18
3,A14G U28G C31U,0.07
4,A14G U32G A41G,0.06
5,A14G U38C A41G,0
6,A14U A16C G27U G44U,0.08
7,A14U A16G C46U,0.03
8,A14U A16G U20C A25C A26U G33U G40U,0.03
9,A14U A16U G19U C23U G35C,0.05
10,A14U A16U G22U A39C G44A,0.02
11,A14U A24C C45U,0.07
12,A14U A24C G27A,0.09
13,A14U A24C G29A C37G A39C,0.02
14,A14U A24C U38C C45G,0.01
15,A14U A24U A25G G33A,0
16,A14U A25C G35U C42G,0.09
17,A14U A25U G29U,0.61
18,A14U A26C G29U,0.23
19,A14U A39C A41U,0.06
20,A14U A41U U43C,0.07
21,A14U C15A G17A G19C U38A,0.02
22,A14U C15A G19A U43A,0.16
23,A14U C15G A16G A25G G35C,0.06
24,A14U C15G C23A,0.05

row,Variant,self-cleavage
1,A14U C15G C42U,0.01
2,A14U C15G U32A C37G,0.03
3,A14U C15U C18G,0.06
4,A14U C15U C18U G21C U38C,0.09
5,A14U C15U G22U C31U C46A,0.06
6,A14U C15U G27C,0.11
7,A14U C15U G27C C31U U32C G36C C37A C46G,0.07
8,A14U C15U G30U U32A C45U,0.02
9,A14U C15U G36C U43C,0.08
10,A14U C15U G40A,0.04
11,A14U C18A C31A U43G C45A,0.03
12,A14U C18A G22U A25G G27U C37U A41U C46A,0.04
13,A14U C18A G33C A39U,0.02
14,A14U C18A G36A G40C U43C,0.04
15,A14U C18A G36U G40U,0.03
16,A14U C18A U34G,0.12
17,A14U C18G C37G C42A G44A,0.02
18,A14U C18U A24U,0.08
19,A14U C18U A25G,0.03
20,A14U C23G G33C,0.01
21,A14U C23G G40A,0.07
22,A14U C37A G44U,0.12
23,A14U C37U G40A,0.17
24,A14U C42U C45G,0.05

row,Variant,self-cleavage
1,A14U G17A C42U,0.12
2,A14U G17A C45U,0.03
3,A14U G17C G19U G22A,0.12
4,A14U G17U A25C C45A,0
5,A14U G17U A25C U32A U34C,0.11
6,A14U G17U G33A U43A,0.14
7,A14U G19A G21C A24G,0.18
8,A14U G19A G29U U38A,0.93
9,A14U G19A U20A C42A,0.04
10,A14U G19A U20G G22C C46A,0.05
11,A14U G19A U38G,0.06
12,A14U G19C C31G,0.03
13,A14U G19C C46G,0.37
14,A14U G19C U20C A24C,0.06
15,A14U G19U U20C,0.48
16,A14U G21A G36A U38C C42U,0.01
17,A14U G21C G33C G36A A39G,0.01
18,A14U G21U G40A,0.11
19,A14U G21U U32G G35A G36U A39U,0.06
20,A14U G21U U34G,0.24
21,A14U G22U A24U G40A C42U,0.11
22,A14U G27A G29A,0.04
23,A14U G27A U32G,0.06
24,A14U G27A U34C C42G C45U,0.1

row,Variant,self-cleavage
1,A14U G27C C31G,0.03
2,A14U G29A U34C G40C,0.05
3,A14U G29C C31A U34A,0.29
4,A14U G29C G36U,0.02
5,A14U G29C U34C,0.07
6,A14U G29U G40C,0.07
7,A14U G30A C37U C42G,0
8,A14U G30U C46A,0.06
9,A14U G35A G44C,0.05
10,A14U G35C U38C,0.05
11,A14U G36A C45A,0.01
12,A14U G36C G40A,0.02
13,A14U G40U C45A,0.15
14,A14U G44A C46U,0.05
15,A14U U20A C31U C42G U43A,0.07
16,A14U U20A G29U C31A G33U,0.02
17,A14U U20A G30A C37G,0.08
18,A14U U20A U32A G33U,0.02
19,A14U U20C G22C C37U,0.03
20,A14U U20C G22U U34G G35U G40U,0.01
21,A14U U20G C31A G35A,0.04
22,A14U U20G G21A U38A C42U,0.05
23,A14U U28C A39U,0.07
24,A14U U28C G29C G40C C45U,0.07

row,Variant,self-cleavage
1,A14U U28G C31A A41U,0.08
2,A14U U28G C42U,0.11
3,A14U U28G G29A,0.05
4,A14U U28G G35A,0.01
5,A14U U34A C37A,0
6,C15A A16C C23A G27U,0.03
7,C15A A16U C18G C23G,0.08
8,C15A A16U G19A U32A,0.02
9,C15A A16U G22A,0.08
10,C15A A16U G29U,0.05
11,C15A A16U U20A U34C G44C C46U,0.02
12,C15A A24U A25C,0.02
13,C15A A24U A41C,0.09
14,C15A A25U C37G G40A,0.02
15,C15A A25U G29C,0.06
16,C15A A25U G30U G36A C37A U43A G44U,0.08
17,C15A A26G G35C G40U,0.01
18,C15A A26G U32G,0.06
19,C15A A41C C42A,0.03
20,C15A C18A A24C C37U,0
21,C15A C18A A24C U43G,0.02
22,C15A C18A A26G G30C,0.02
23,C15A C18A C37A A39G C42U,0.01
24,C15A C18A G33C A39U,0.01

row,Variant,self-cleavage
1,C15A C18A G35A,0.03
2,C15A C18A U38A A39C,0.02
3,C15A C18G A24U U28A U43G G44C,0
4,C15A C18G G29U,0.01
5,C15A C18G G36A G40U,0.03
6,C15A C18G U20G U32A,0.01
7,C15A C18U G21A,0.03
8,C15A C18U G27A G33A C37U,0.02
9,C15A C23A A25U G35U C42A,0.04
10,C15A C23G C37G G40U U43C,0.03
11,C15A C23G G30A,0.03
12,C15A C23G G44C,0
13,C15A C23U A26C,0.23
14,C15A C31G C45G C46A,0.07
15,C15A C31U C45U,0.05
16,C15A C31U G35U,0.07
17,C15A C37U G40A,0.04
18,C15A C42G G44U,0.04
19,C15A G17A A26U G35U,0.02
20,C15A G17A C18A A25U,0.07
21,C15A G17A G33A,0.05
22,C15A G17A G36C,0.02
23,C15A G17A U20A A25G,0.08
24,C15A G17A U38A A39G C42A U43C,0.01

row,Variant,self-cleavage
1,C15A G17A U38A C46U,0.03
2,C15A G17C A25C G40U,0.05
3,C15A G17C C18G,0
4,C15A G17C G22U G40U C45A,0.02
5,C15A G17C G35C,0.02
6,C15A G17C U20G,0.05
7,C15A G19A A24U G33C,0.01
8,C15A G19A C31G,0.07
9,C15A G19A G21A G44U,0.02
10,C15A G19C A25U C31A G40A,0.05
11,C15A G19C A26U,0.04
12,C15A G19C G27U C46U,0.13
13,C15A G19C G33C C37U G40C U43A,0
14,C15A G19C G44C,0.04
15,C15A G21A G36U,0.09
16,C15A G21C A24G U32G C45U,0.03
17,C15A G21C C31U G44A,0.21
18,C15A G21U G27A G30A,0.19
19,C15A G21U G33C U43C,0.03
20,C15A G21U G44C,0.04
21,C15A G22C G33A,0.03
22,C15A G22C G40C G44U,0.01
23,C15A G22U G27A C37A,0.01
